Test results taken from ChEMBL document CHEMBL1201862, “PubChem BioAssay data set” (2004).

Each molecule was assayed on NCI-H322M (assay: NCI tumour cell line growth inhibition, 48 h).
In the case of `CC12CCC(C(Nc3cc(C(F)(F)F)cc(C(F)(F)F)c3)C1=O)C2(C)C` (stereo not given), the GI50 is reported as inactive: > 100 µM.
For `O=[N+]([O-])c1cccnc1NCC1(CO)CC(Cc2ccccc2)C1` (stereo not given), the GI50 was inactive: 67 µM.
For `CCN(CC)C(=S)SC1C(=O)NC(=O)NC1=O`, the GI50 was inactive: > 100 µM.
With `NCCCC[C@H](N)C(=O)Nc1ccc(-c2nc3ccccc3s2)cc1Cl` the GI50 was inactive: 12.4 µM.
In the case of `CC(=O)CC1(OC(=O)C2C(C=C(C)C)C2(C)C)C(=O)Nc2ccccc21` (stereo not given), the GI50 is reported as inactive: > 100 µM.
With `COc1cccc2c1C(CO)N1C(C#N)C3CC(C(=O)O)C(C1C2)N3C` (stereo not given) the GI50 was inactive: 4.46 µM.
For `C[C@]12CC[C@H]3[C@@H](CC=C4C[C@@H](N5CCCC5)CC[C@@]43C)[C@@H]1C[C@H](N1CCOCC1)[C@@H]2O`, the GI50 was inactive: 96.2 µM.
With `COc1cc(Nc2n[nH]c(NS(=O)(=O)c3cc(C)c(Cl)cc3S)n2)cc(OC)c1OC` the GI50 was inactive: > 100 µM.
In the case of `CN1CCN(C(=S)N(C(=O)c2ccc(Cl)cc2)c2ccccc2)CC1`, the GI50 is reported as inactive: > 100 µM.
In the case of `C=C1CC(O)C2C(=C)C(=O)OC2C2C(C)C(=O)CC12` (stereo not given), the GI50 is reported as inactive: 64.4 µM.
For `O=C(O)CN1CCSc2ccccc2CN(CC(=O)O)CCSc2ccccc2C1`, the GI50 was inactive: > 100 µM.
For `COc1c2ccoc2nc2c(OC)c(OCC(O)C(C)(C)O)ccc12` (stereo not given) [EVOXINE], the GI50 was inactive: > 100 µM.
For `Oc1ccc2ccccc2c1NCn1nc(CCCCCCCCc2nn(CNc3c(O)ccc4ccccc34)c(=S)o2)oc1=S`, the GI50 was inactive: > 100 µM.
For `[O-][n+]1c2cccc(O)c2[n+]([O-])c2cccc(O)c21`, the GI50 was inactive: > 100 µM.
`COc1ccc2c(-c3ccc(OCCN(C)C)cc3)c(Oc3ccc(Cl)cc3)c(=O)oc2c1` was tested, and the GI50 was inactive: 4.65 µM.
`Cc1ccc(C)c(NC(=O)c2cccc([N+](=O)[O-])c2O)c1` was tested, and the GI50 was inactive: 21.2 µM.
With `CCc1nc2c(n1CC)C(=O)c1ccccc1C2=O` the GI50 was inactive: 41.8 µM.
With `C[n+]1c2ccccc2c(CNc2ccc(S(=O)(=O)N=C(N)N)cc2)c2ccccc21` the GI50 was inactive: 18.6 µM.
In the case of `O=C1OC(O)C(Oc2c(Cl)cccc2Cl)=C1Cl` (stereo not given), the GI50 is reported as inactive: 20.6 µM.
For `Nc1c(Br)c(=O)[nH]c(=O)n1COCCO`, the GI50 was inactive: > 100 µM.
In the case of `COc1cc2c(cc1OC)-c1cc3ccccc3c(=O)n1CCC2`, the GI50 is reported as inactive: 9.59 µM.
For `CCC(=O)Oc1c2ccsc2c(OC(=O)CC)c2ccsc12`, the GI50 was inactive: 1.73 µM.
For `CCC(=O)Nc1ccc(N2C(=O)C(Cl)C2c2ccc(SC)cc2)cc1` (stereo not given), the GI50 was inactive: > 100 µM.
With `Sc1ncc2[nH]nnc2n1` the GI50 was inactive: > 100 µM.
In the case of `CC1CC/C(=C\c2ccc(N(C)C)cc2)C(=O)/C1=C/c1ccc(N(C)C)cc1` (stereo not given), the GI50 is reported as inactive: > 100 µM.
For `CCOC(=O)C1=C(N2CCCC2)C(=O)C(C(=O)OCC)C1` (stereo not given), the GI50 was inactive: > 100 µM.
With `COC(C(=O)C(O)C(C)O)C1CC2C=C3C=C(OC4CC(OC5CC(O)C(OC)C(C)O5)C(OC(C)=O)C(C)O4)C(C)C(O)=C3C(O)=C2C(=O)C1OC1CC(OC2CC(OC3CC(C)(O)C(OC(=O)C(C)C)C(C)O3)C(O)C(C)O2)C(O)C(C)O1` (stereo not given) the GI50 was active: < 0.01 µM.
In the case of `CCOC(=O)N1C=CC(=C2C(=C3C=CN(C(=O)OCC)C=C3)C(=C3C=CN(C(=O)OCC)C=C3)C2=C2C=CN(C(=O)OCC)C=C2)C=C1`, the GI50 is reported as inactive: 17.5 µM.
In the case of `O/N=C1/C(=C/c2ccc(F)cc2)CCCC1C(NO)c1ccc(F)cc1` (stereo not given), the GI50 is reported as inactive: 18.3 µM.
In the case of `CC(Nc1cccc(Cl)c1)c1ccncc1` (stereo not given), the GI50 is reported as inactive: > 100 µM.
In the case of `COc1cc(OC)cc(-c2cc(=O)c3c(OC)c(OC)c(OC)c(OC)c3o2)c1`, the GI50 is reported as inactive: 49.2 µM.
With `CC(=O)N(C(C)=O)c1c(N)n(C)c(=O)[nH]c1=O` the GI50 was inactive: > 100 µM.
In the case of `CN(C)CCn1c(=O)nc2c3c(c([N+](=O)[O-])ccc31)Nc1ccc(O)cc1-2`, the GI50 is reported as inactive: 3.86 µM.
`CCCNC(=S)N/N=C1\C(=O)Nc2ccccc21` was tested, and the GI50 was inactive: > 100 µM.
`Clc1ccc2[nH]c(CCSCCc3nc4ccc(Cl)cc4[nH]3)nc2c1` was tested, and the GI50 was active: 0.75 µM.
In the case of `O=S1OC2(c3ccccc3-c3ccccc32)c2ccccc21` (stereo not given), the GI50 is reported as inactive: > 100 µM.
For `Cc1c(N)nc([C@H](CC(N)=O)NC[C@H](N)C(N)=O)nc1C(=O)N[C@H](C(=O)N[C@H](C)[C@@H](O)[C@H](C)C(=O)N[C@H](C(=O)NCCc1nc(-c2nc(C(=O)NCCC[S+](C)C)cs2)cs1)[C@@H](C)O)C(OC1OC(CO)C(O)C(O)C1OC1OC(CO)C(O)C(OC(N)=O)C1O)c1c[nH]cn1` (stereo not given in full), the GI50 was inactive: 16.6 µM.
In the case of `C=CCN1C(N)=C(C#N)C(C#N)(C#N)C1CCC` (stereo not given), the GI50 is reported as inactive: > 100 µM.
`Cc1ccc(S(=O)(=O)n2c3ccc(Br)cc3c3nc4ccccc4nc32)cc1` was tested, and the GI50 was inactive: > 100 µM.
With `COc1ccc(NC(=S)NC(=O)c2ccc3c(c2)Sc2ccccc2O3)c([N+](=O)[O-])c1` the GI50 was inactive: 30.3 µM.
With `CC12CCCC(C(=O)O)(C1)[C@H](C(C)(C)C(=O)O)CC2` (stereo not given in full) the GI50 was inactive: > 100 µM.
For `O=C1C2=C(CCCC2)Nc2cccc3ncn1c23`, the GI50 was inactive: > 100 µM.
With `COc1ccccc1-c1cc(O)c2cccnc2n1` the GI50 was inactive: 43.2 µM.
With `CC1(CO)C(O)CCC2(C)C1CCC1CC3CC12CCC3(O)CO` (stereo not given) the GI50 was inactive: > 100 µM.
In the case of `O=C1OC(c2ccccc2)=N/C1=C\c1ccc([N+](=O)[O-])cc1`, the GI50 is reported as inactive: > 100 µM.
With `Cc1ccc2c(ccc(/C=C\c3cc(C)c4cccnc4c3O)[n+]2C)c1` the GI50 was inactive: 15.6 µM.
`CN(C)CC1CCC/C(=C\c2ccc(OC(=O)/C=C/c3ccc(Cl)cc3)cc2)C1=O` (stereo not given) was tested, and the GI50 was inactive: 17.5 µM.
In the case of `CC(C)(C)OC1=C(OC(C)(C)C)C(O)(c2ccc(Cl)cc2)C1=O` (stereo not given), the GI50 is reported as inactive: > 100 µM.
`COC(=O)[C@H]1C=NN[C@@H]1C(=O)N1[C@H]2CC3CC[C@@]2(CS1(=O)=O)C3(C)C` was tested, and the GI50 was inactive: > 100 µM.
For `Nc1ccn(C2OC(COC(=O)C34CC5CC(CC(C5)C3)C4)C(O)C2O)c(=O)n1` (stereo not given), the GI50 was inactive: 63.5 µM.
With `Nc1c(-c2nc3ccccc3s2)c2ccc([N+](=O)[O-])cc2c(=O)n1-c1cccc(C(=O)O)c1` the GI50 was inactive: 26.2 µM.
For `CCOP(=O)(OCC)OC1c2[nH]cc(C(=O)OCc3ccccc3)c2-c2cc(C(=O)OC)[nH]c2C1OC` (stereo not given), the GI50 was inactive: 13.9 µM.
`N/C(=N\c1c([N+](=O)[O-])cnc2ccccc12)N1CCOCC1` was tested, and the GI50 was inactive: > 100 µM.
With `O=C(O)c1ccc(N2C=[N+]3C(=Nc4ccccc43)C2)cc1` the GI50 was inactive: > 100 µM.
With `COc1ccc(NC(=O)CC/C(CC(=O)c2ccccc2Cl)=N\Nc2nnc(C)n2N)cc1` the GI50 was inactive: > 100 µM.
`COc1ccc(-c2cc(-c3ccccc3)nc3c2CC(=O)Nc2ccccc2-3)cc1OC` was tested, and the GI50 was inactive: > 100 µM.
In the case of `Cc1cc(Cl)ccc1N1C(=O)C(=O)C(c2nc3ccccc3s2)/C(=N\NC(=O)c2ccccc2O)C1=O` (stereo not given), the GI50 is reported as inactive: > 100 µM.
For `NS(=O)(=O)c1ccc(NNc2c3ccccc3nc3c(C(=O)Nc4ccc(S(=O)(=O)Nc5ncccn5)cc4)cccc23)cc1`, the GI50 was inactive: > 25 µM.
`Cc1cc(C)nc(NS(=O)(=O)c2ccc(Nc3nnc(/C=C/c4c(O)ccc5ccccc45)c(=O)n3N)cc2)n1` was tested, and the GI50 was inactive: 71.3 µM.
In the case of `COC(=O)c1ccccc1CC1Cc2cc3c(cc2C1)CCC3`, the GI50 is reported as inactive: 97.3 µM.
In the case of `COC(=O)C(Cc1c[nH]c2ccccc12)NP(=O)(O)OCC1OC(n2ccc(N)nc2=O)C(O)C1O` (stereo not given), the GI50 is reported as inactive: > 100 µM.
In the case of `CCOc1ccccc1/N=N/C1C(=O)N(C(=O)CC(=O)Nc2ccccc2C)N=C1C` (stereo not given), the GI50 is reported as inactive: 75.3 µM.
With `C=C1C(=O)O[C@@H]2/C=C(\C)CC/C=C(\C)CC[C@@]12O` the GI50 was inactive: 13.9 µM.
For `CSCCCNC(=O)c1csc(-c2csc(C(CNC(=O)OC(C)(C)C)CNC(=O)OC(C)(C)C)n2)n1`, the GI50 was inactive: 62.7 µM.
In the case of `CCNC(=O)OCC1C2=C(C(=O)C(C)=C(N)C2=O)N2CC3C(N3C)C12OC` (stereo not given), the GI50 is reported as inactive: 25.8 µM.
For `O=C(O)c1ccccc1NCn1c(=S)sc2ccccc21`, the GI50 was inactive: > 100 µM.
`Nc1ncnc2c1ncn2C1OC(CO)CC1O` (stereo not given) was tested, and the GI50 was inactive: 26.9 µM.
`CC(=O)Nc1ccc2cc(C)c(O)nc2n1` was tested, and the GI50 was inactive: > 100 µM.
In the case of `COc1ccc(C2C3=C(Nc4ncnn42)c2ccccc2OC3c2ccccc2)cc1` (stereo not given), the GI50 is reported as inactive: 13.9 µM.
`CC(C)(C)c1cc(C(=O)O)c(C(c2ccccc2)c2ccccc2C(=O)O)c(C(=O)O)c1` (stereo not given) was tested, and the GI50 was inactive: > 100 µM.
With `CSc1c(C#N)c(=O)n(N)c2[nH]nc(C)c12` the GI50 was inactive: > 100 µM.
For `O=C1C=CC(=O)N1n1c(-c2ccccc2)n[nH]c1=O`, the GI50 was inactive: > 100 µM.
In the case of `S=P1(N2CCCCC2)Oc2ccc3ccccc3c2-c2c(ccc3ccccc23)O1`, the GI50 is reported as inactive: > 100 µM.
`N#Cc1c(C#N)c(-c2ccccc2)n(/N=C\c2ccccc2)c1N` was tested, and the GI50 was inactive: 34.8 µM.
`O=C1CC(C(O)C(O)C(O)CO)CC(=O)N1` (stereo not given) was tested, and the GI50 was inactive: > 100 µM.
With `COc1cc(Nc2cc(Cl)cc(Cl)c2)nc(N)n1` the GI50 was inactive: 22.5 µM.
`O=S1(=O)C[C@@H](O)[C@H](O)CS1` was tested, and the GI50 was inactive: > 100 µM.
With `COc1cc2c(cc1OC)C(Cc1ccccc1CCCl)=NCC2` the GI50 was inactive: > 100 µM.
In the case of `O=NN1C(c2ccccc2)C2CCCC(C2=O)C1c1ccccc1` (stereo not given), the GI50 is reported as inactive: 45.9 µM.
In the case of `Cc1cn2c(/C=N/NC(=N)N)c(-c3ccc(Cl)c([N+](=O)[O-])c3)nc2s1`, the GI50 is reported as inactive: 1.63 µM.
With `Cc1nnc(N2C(=O)C(=Cc3ccc(Cl)cc3)N=C2c2ccc(Cl)cc2)nc1/C=C\c1ccc(N(C)C)cc1` the GI50 was inactive: > 100 µM.
For `Cn1c(=O)c2c(nc(NCCCCl)n2CC(=O)NCCCCl)n(C)c1=O`, the GI50 was inactive: > 100 µM.
In the case of `CCC(=O)NC(NNS(=O)(=O)c1ccc(C)cc1)(C(F)(F)F)C(F)(F)F`, the GI50 is reported as inactive: > 100 µM.
In the case of `O=P1(Cc2ccccc2)N(Cc2ccccc2)[C@@H]2CCCC[C@H]2N1Cc1ccccc1`, the GI50 is reported as inactive: 11.5 µM.
`COc1ccc(NC(=S)NNC(=O)c2cc(-c3ccccc3)nc3ccccc23)cc1` was tested, and the GI50 was inactive: 21.4 µM.
With `Cc1ccc(S(=O)(=O)n2cncc2CO)cc1` the GI50 was inactive: > 100 µM.
`CNNC1=NS(=O)(=O)c2cc(C(=O)OC)c(Cl)cc2S1` was tested, and the GI50 was inactive: > 10 µM.
`CCC1(CC)C(=O)N(C(=O)c2ccc(C)cc2)N(C(=O)c2ccc(C)cc2)C1=O` was tested, and the GI50 was inactive: > 75 µM.
`CCC(C)NC1=NCC(C)S1` (stereo not given) was tested, and the GI50 was inactive: > 100 µM.
With `COc1ccccc1/C=C1\N=C(C)OC1=O` the GI50 was inactive: > 100 µM.

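Grown in 96-well plates, cells were treated for 48 hours with each compound at five concentrations. Insufficient inhibition: endpoint recorded as highest concentration tested. Here, GI50 denotes the concentration required for 50% inhibition of growth.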 Calls of active or inactive are those of the source. No stated cut-off is given here; in the data, active = GI50 up to about 1.1 µM and inactive = higher.
